The campaign covered roughly 45,000 compounds. About 200 (0.44%) were called active. Inconclusive results (about 7%) are left out. Calls come from the whole dose curve; as a rule, active = well fitted activation curve with a large enough effect; inconclusive = small, poorly fitted or top-dose-only effect; inactive = no such curve, though single readings can be large or run the other way. The list shows a part of the results.
Assay: qHTS of TDP-43 Inhibitors: NCGC Sytravon Library Screen; note: 0% is about no effect; nearly all actives have a fitted effect of over 55% in size
Settings: yeast TDP-43 toxicity rescue, BacTiter-Glo growth, 24 h; series mostly up to 46.1 µM; growth rescue (activation): at the top concentration
Method in brief: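 TDP-43-expressing yeast, pregrown in raffinose, seeded at OD600 0.02 in galactose medium with compound for 24 hr at 30 deg C. Growth read by BacTiter-Glo luminescence, so rescue of toxicity appears as activation.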

| SMILES | growth rescue (activation) |
| --- | --- |
| Cn1nc(C2CC2)cc1NC(=O)C1(C)CCN1C(=O)CC(c1ccccc1)c1ccccc1 (configuration not stated) | inactive: 4.91% |
| COc1ccc(NC(=O)c2cc(C3CCCCN3S(=O)(=O)c3cn(C)cn3)on2)c(C)c1 (configuration not stated) | inactive: 0.534% |
| O=C(NCc1ccc(Cl)cc1)C1CCN(S(=O)(=O)N2CCOCC2)CC1 | inactive: -1.78% |
| c1ccc(COc2ccc(-c3cc4nc(NCCOc5ccccc5)ccn4n3)cc2)cc1 | inactive: 1.2% |
| COC(=O)Nc1nnc(/C=C/c2ccc(OC)cc2)s1 | inactive: -15% |
| CCN1CCCC1CNC(=O)C(=O)Nc1ccccc1 (configuration not stated) | inactive: 12.8% |
| O=C(O)C/C(=C\c1cc2c(cc1Br)OCO2)c1nc2ccccc2s1 | inactive: 14.1% |
| COc1cccc(NC(=O)C(=O)NCc2ccncc2)c1 | inactive: 5.89% |
| O=C(O)c1cc([N+](=O)[O-])c(NCc2cccnc2)c([N+](=O)[O-])c1 | inactive: 0.561% |
| O=C(CCl)Nc1ccc(N2CCCCCC2)cc1 | inactive: -1.73% |
| Cc1cc(F)ccc1-c1cc(C(=O)Nc2ccc(F)cc2)[nH]n1 | inactive: 5.53% |
| COc1ccc(OC)c(NC(=O)C2CCCN(S(=O)(=O)c3ccc(-n4cnnn4)cc3)C2)c1 (configuration not stated) | inactive: -7.82% |
| COc1ccc(NC(=O)N[C@@H](CCSC)C(=O)O)cc1OC | inactive: 6.19% |
| CC1CC(C)CN(C(=O)COC(=O)Cc2ccc(Br)cc2)C1 (configuration not stated) | inactive: 9.19% |
| Cc1cc(C)n(-c2ccc(C(=O)OCC(=O)Nc3ccc(S(N)(=O)=O)cc3)cc2)n1 | inactive: 3.45% |
| Cc1ccc(C)c(-n2c(-c3cccnc3)n[nH]c2=S)c1 | inactive: 4.79% |
| Cc1ccc(NC(=O)CN2C(=O)C(c3ccc(F)cc3)=NC23CCCCCC3)c(C)c1 | inactive: 20.1% |
| COc1ccc(OS(=O)(=O)Cc2ccccc2)cc1 | inactive: 19.3% |
| O=C(NCc1ccc(F)cc1)c1ccc(NC(=O)C2CCCO2)cc1 (configuration not stated) | inactive: 20% |
| NC(=O)C1(N2CCCCC2)CCN(C(=S)Nc2cc(F)cc(F)c2)CC1 | inactive: -2.54% |
| Nc1nc(-c2cccnc2)nc2sc3c(c12)CCCC3 | inactive: 10.1% |
| Cc1cccc(NC(=O)Nc2cccs2)c1C | inactive: 17.8% |

| SMILES | growth rescue (activation) |
| --- | --- |
| COc1cccc(NC(=O)Nc2ccc(Cc3ccncc3)cc2)c1 | inactive: 6.02% |
| CCSc1nc(=S)n(Cc2ccccc2)c(C)c1C(C)=O | inactive: 9.99% |
| COCCNC(=O)c1c(C)cc(C)cc1C | inactive: 12.8% |
| COc1ccc(Cl)cc1C(=O)OCC(=O)Nc1sccc1C(N)=O | inactive: 1.64% |
| Cc1ccccc1CN1CCN(S(=O)(=O)c2ccc(Cl)s2)CC1 | inactive: 2.12% |
| O=C(COc1ccccc1Cl)NCCCNC(=O)c1cccnc1 | inactive: 10.4% |
| Cc1cccc(OCCC(=O)Nc2ccc(C)c(S(=O)(=O)N3CCCCC3)c2)c1 | inactive: 15.9% |
| COc1cccc(C(C(=O)NCC2CCCO2)N(C(=O)Cn2nnc3ccccc32)c2ccc(NC(C)=O)cc2)c1 (configuration not stated) | inactive: 7.53% |
| O=C(CSc1nnc2ccccn12)NC(=O)c1cccc([N+](=O)[O-])c1 | inactive: 1.61% |
| Cc1ccc(NC(=O)c2ccn(C(=O)Nc3ccccc3)n2)c(C)c1 | inactive: 32.4% |
| C#CC(C)(CC)NC(=O)c1cc2nc(C3CC3)cc(C(F)(F)F)n2n1 (configuration not stated) | inactive: 23.5% |
| Cc1ccc(S(=O)(=O)N2CCCC2C(=O)N2CCCCCC2)cc1 (configuration not stated) | inactive: -24.1% |
| O=C(CSc1nncs1)Nc1ccc(Cl)cn1 | inactive: 0.807% |
| Cc1ccc(C(C)C)c(OCC(=O)Nc2cc(-c3nc4ccccc4[nH]3)ccc2C)c1 | inactive: 20.1% |
| COc1ccc(C2c3c(ncn(Cc4ccco4)c3=N)Oc3ccc4ccccc4c32)cc1 (configuration not stated) | inactive: 7.11% |
| CCc1ccc(-n2ccc(=O)c(C(=O)O)n2)cc1 | inactive: -8.94% |
| Cc1cc(S(=O)(=O)NCc2ccccc2)ccc1OCC(=O)N1CCOCC1 | inactive: -8.46% |
| CC(=O)NCCNC(=O)c1ccc(-n2c(C)ccc2C)cc1 | inactive: 0.238% |
| CC(C)N=c1scc(-c2cccs2)n1/N=C/c1ccc(O)c(O)c1O | inactive: -37% |
| CCOC(=O)c1cc(-c2ccccc2)sc1NC(=O)CSc1nncs1 | inactive: 9.12% |
| COc1ccccc1-c1cn[nH]c1-c1ccc(OCc2ccccc2F)cc1O | inactive: -6.94% |
| O=C1C2C3C=CC(c4ccccc4)(C2C(=O)N1c1cccc(Cl)c1)C1C(=O)N(c2cccc(Cl)c2)C(=O)C31 (configuration not stated) | inactive: 8.5% |

| SMILES | growth rescue (activation) |
| --- | --- |
| COc1ccc(C)cc1NC(=O)C1CCN(C(=O)c2ccco2)CC1 | inactive: -8.36% |
| CC(=O)Nc1ccc2c(c1)C(C)(C)C(C)N2C (configuration not stated) | inactive: -11.4% |
| NS(=O)(=O)c1ccc(CNC(=O)Cc2ccccc2F)cc1 | inactive: -5.33% |
| N#CC1=C2SC=C(c3ccc(Br)cc3)N2CCCC1=O | inactive: 6.44% |
| Cc1nc(NC(=O)c2ccc(-c3cc4ccccc4oc3=O)cc2)ccc1Br | inactive: 0.6% |
| CC(=O)Nc1cccc(-c2ccnc3c2CC(C)(C(=O)Nc2cccc(C(F)(F)F)c2)O3)c1 (configuration not stated) | inactive: -11.6% |
| CC1=C([N+](=O)[O-])C(c2ccc3c(c2)OCO3)N(C)C(=O)N1C (configuration not stated) | inactive: 3.36% |
| Cc1nn(C)c(Oc2ccccc2)c1CCNC(=O)CCl | inactive: 4.59% |
| Cc1c(CC(=O)NCCCC(=O)O)c(=O)oc2cc3c(cc12)CCC(C)(C)O3 | inactive: 0.507% |
| O=C(OCn1nnc2ccccc2c1=O)c1cc(-c2ccccc2Cl)nc2ccccc12 | inactive: 1.01% |
| O=C(COC(=O)Cc1ccccc1F)Nc1cc(S(=O)(=O)N2CCOCC2)ccc1N1CCCC1 | inactive: -4% |
| COc1ccc(NC(=O)c2ccccc2SC)c(OC)c1 | inactive: 18.5% |
| OCCN1CNC(=S)NC1 | inactive: 7.64% |
| C[C@@H]1CN(C2CCN(Cc3nc(C(c4ccccc4)c4ccccc4)no3)CC2)C[C@H](C)O1 | inactive: -1.84% |
| Nc1ccc(-c2ccc(N)c([N+](=O)[O-])c2)cc1[N+](=O)[O-] | inactive: 8.24% |
| CS(=O)(=O)c1ccccc1C(=O)Nc1ccccc1Cc1ccccc1 | inactive: -46.2% |
| CCc1nc2ccc(C(=O)N3CCCC(C(N)=O)C3)cn2c1N(CCC(C)C)CCN(C)C (configuration not stated) | inactive: 5.59% |
| O=C(NC(=S)Nc1ccccc1N1CCOCC1)c1ccc([N+](=O)[O-])cc1 | inactive: 14.9% |
| CC1CCN(C(=O)CSc2nnc(-c3ccccc3F)o2)CC1 | inactive: 21.2% |
| CCOC(=O)c1cnc(SCC(=O)Nc2ccc3c(c2)OCCO3)nc1N | inactive: 11% |
| Cc1cc(C2=NNC(=Nc3ccc(S(=O)(=O)N4CCOCC4)cc3)SC2)c(C)n1CC1CCCO1 (configuration not stated) | inactive: 9.42% |
| CCOC(=O)C1=C(N)n2c(s/c(=C\c3cccnc3)c2=O)=C(C(=O)OC)C1c1cccnc1 (configuration not stated) | inactive: 11.5% |

| SMILES | growth rescue (activation) |
| --- | --- |
| COc1ccc(N2CCN(C(=O)C3CC(=O)N(c4ccc(C)cc4)C3)CC2)cc1 (configuration not stated) | inactive: -3.77% |
| Cc1cc(C(=O)NCCc2ccc(S(N)(=O)=O)cc2)no1 | inactive: -6.32% |
| O=C(Nc1nccs1)[C@@H]1CCCN1S(=O)(=O)c1ccc(Cl)cc1 | inactive: 21.8% |
| Cc1ccc(C(=O)NCCCNC(=O)COc2ccc(C)c(C)c2)cn1 | inactive: -0.508% |
| CC1CCC(N2CCN(S(=O)(=O)Cc3ccccc3)CC2)CC1 (configuration not stated) | inactive: 1.18% |
| Cc1ccc(NC(=S)NC(=O)c2ccc(-c3ccc(Cl)cc3)o2)c(O)c1 | inactive: 18.7% |
| COc1cccc(CSc2nnc(-c3ccncc3)n2C)c1 | inactive: 15.1% |
| COc1cccc(/C(C)=N/Nc2ncc(Cl)cc2Cl)c1 | inactive: 7.62% |
| CCC(C)NS(=O)(=O)c1ccc(OCC(=O)NCc2ccccn2)cc1 (configuration not stated) | inactive: -12.9% |
| CC1=CC2=NC(=O)/C(=C\c3cn(C)c4ccccc34)C(=N)N2O1 | inactive: 7.65% |
| CCN1CCN(c2oc(-c3ccccc3)nc2S(=O)(=O)c2ccc(C)cc2)CC1 | inactive: -6.33% |
| CCc1ccc(CN2CCCC(CNC(=O)c3cccc(OC)c3OC)C2)cc1 (configuration not stated) | inactive: 3.42% |
| CCOC(=O)c1c(NC(=O)c2ccc(Br)o2)sc(C)c1CC | inactive: 22% |
| Cc1cc(C(=O)Cn2nnc(-c3ccc(Cl)cc3)n2)c(C)n1-c1ccccc1 | inactive: 4.9% |
| CC1=C(CC(=O)NCC(=O)NCC(=O)O)c2cc(F)ccc2/C1=C/c1ccc(S(C)=O)cc1 (configuration not stated) | inactive: -19.3% |
| COc1ccc(NC(=O)CNC(=O)c2c(C)nn(C)c2Cl)cc1 | inactive: 6.23% |
| O=C(NCCc1nc2ccccc2n1Cc1ccc(Cl)cc1Cl)c1ccco1 | inactive: -0.784% |
| COc1ccccc1C(=O)Nc1nnc([C@H]2C[C@H](O)[C@@H](CO)O2)s1 | inactive: 8.06% |
| CCc1ccc(NS(=O)(=O)c2ccc3[nH]c(=O)[nH]c3c2)cc1 | inactive: 8.56% |
| COc1ccc(CN(CC(=O)NCc2ccc(F)cc2)C(=O)CCC(=O)Nc2cc(C)ccn2)cc1 | inactive: -13.3% |
| CCc1ccc(OC2(C)CCN(CCOc3ccc(C)cc3)C2)cc1 (configuration not stated) | inactive: 16.9% |
| O=C(Nc1ccccc1Cl)O/N=C(/c1ccccc1)c1ccccn1 | inactive: 24.3% |

| SMILES | growth rescue (activation) |
| --- | --- |
| CCOc1cc(N2CCOCC2)c(OCC)cc1NC(=O)COC(=O)c1ccc(Cl)nc1 | inactive: -11.3% |
| O=C(Nc1cccc2ccccc12)c1csc(COCCO)n1 | inactive: 15% |
| CC1(C(=O)NCC2CC2)Cc2c(-c3ccccc3)ccnc2O1 (configuration not stated) | inactive: 17.8% |
| CC/C(Cc1ccccc1)=N\NC(=O)c1cc(C)oc1C | inactive: 8.73% |
| O=C(NC(=S)Nc1nc(-c2ccc(Br)cc2)cs1)c1ccco1 | inactive: 10.8% |
| O=Cc1c(N2CCOCC2)nc2ccccn2c1=O | inactive: -6.64% |
| C[C@H](NC(=O)c1ccc(Br)cc1)C(=O)NCc1ccc(S(N)(=O)=O)cc1 | inactive: 5.95% |
| CC(=O)N[C@@H](Cc1c[nH]c2ccccc12)C(=O)NCc1ccccc1 | inactive: -4.21% |
| CC1(C)OC2OC(C(=O)N/N=C/c3ccccc3F)C3OC(C)(C)OC3C2O1 (configuration not stated) | inactive: -2.23% |
| O=C(c1ccc(Cl)s1)N1CCN(S(=O)(=O)c2ccc(Cl)cc2)CC1 | inactive: -13.3% |
| COc1ccc(OC)c(CN2CCN(S(=O)(=O)c3ccc(NC(C)=O)cc3)CC2)c1 | inactive: -1.46% |
| CCOC(=O)/C(=N/Nc1ccc(Br)cc1)N1CC(C)OC(C)C1 (configuration not stated) | inactive: 15.8% |
| Cc1ccc(-c2csc3ncnc(NCCC(=O)O)c23)cc1 | inactive: 17.7% |
| CSc1nnc(C)c(/C=C/NOCc2ccc(Cl)cc2)n1 | inactive: -21.1% |
| COc1cccc(C(=O)NCC(=O)n2nc(C)cc2C)c1 | inactive: 6.58% |
| COc1ccc(CCN2C(=O)NC(NS(=O)(=O)c3ccc(NC(C)=O)cc3)(C(F)(F)F)C2=O)cc1OC (configuration not stated) | inactive: 0.0379% |
| c1ccc(-c2cn(-c3ccccc3)c3[n+]2CCS3)cc1 | inactive: -1.15% |
| COC(=O)COc1ccc2c(c1C)O/C(=C\c1ccco1)C2=O | inactive: -5.25% |
| CC1(C(=O)NS(=O)(=O)C2CC2)CCN(C(=O)c2c(F)cccc2F)C1 (configuration not stated) | inactive: 0.358% |

Reference: PubChem BioAssay AID1347073 (National Center for Advancing Translational Sciences (NCATS), 2019)
